Source: the supplement of paper PMC11417369
± gives the standard deviation of the averaged measurements. Some of the results follow.

tested on: PfAP2-EXP AP2 domain (GST-tagged); experiment: gcPBM binding intensity (ln(normalized median fluorescence intensity)); higher = stronger DNA binding
Method in brief: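 An Agilent 4 × 180k array of primer-extended double-stranded 36-bp intergenic genomic probes, with negative controls, was incubated for 1 h with GST-tagged P. falciparum DNA-binding domains expressed in E. coli. Alexa488 anti-GST antibody detected bound protein, scanned at 488 nm. Binding intensity is the highest Masliner-normalised natural-log median intensity across replicate spots of either probe orientation.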

Sequence	gcPBM binding intensity (ln)
ACAAGAGAAGTAATTGCACACGTTGTTTCTTTTTCT [CACACA_site35]	8.94 ± 0.28
TCACTATAGTAATTTACACACATTTGAAGAAAATGT [CACACA_site7626]	8.47 ± 0.33
GTGTTAATTTTAAATTGTACAAAATTTATATGATTT [XGTACX_site348]	8.45 ± 0.38
GAAAAGCATAGATGCACACATATATATATATATATA [CACACA_site2169]	10.1 ± 0.39
ATTAATTTTGGTTCATGTACATAAGAAATAAACTCT [XGTACX_site4534]	8.65 ± 0.39
ATTTTTATACGTTTTTTTTTTTTTTTTTTTTATTTA [CACACA_negctrl_site1142]	8.32 ± 0.49
ATATACTTTTTTTTTTTTTTTTTAACGTTATTTATG [CACACA_negctrl_site1277]	8.38 ± 0.61
AAAATATATGAAAACAGTACATATAAAAATTAAAAA [XGTACX_site2594]	8.5 ± 0.3
TTACACATATATATAAATATATATAAATATATATAT [CACACA_negctrl_site150]	8.72 ± 0.14
TACAGACAGAAATGCACACACATATATATATATATA [CACACA_site2283]	10.1 ± 0.57
TATTTGTTTGAATTTTTTTTTTTTTTTTTTTATGTG [CACACA_negctrl_site966]	7.97 ± 0.58
TTTATATTTCAATTTTGTGCTTCGCAAATTGAGAGG [TGCATGCA_negctrl_site327]	8.37 ± 0.3
CACTACATTATGTCATAAATGCATACATAAACATAT [GTGCAC_negctrl_site513]	8.65 ± 0.32
TATAACATAATATAGACACACACATGTACTTATGCC [CACACA_site8547]	8.61 ± 0.35
ATTTTTTGGAAAAGAAGTACAATGGATTTATACGTT [XGTACX_site891]	8.51 ± 0.34
AATGTTTTTTTTTTTTTTTTTTTTTATTTATTGTTA [CACACA_negctrl_site505]	8.09 ± 0.51
ATCAAATAATAGCAAACACACAAAAAATAAAAAAAA [CACACA_site4146]	8.55 ± 0.55
TAACATATAATATTATGTACATATATACATATATAA [XGTACX_site7467]	8.43 ± 0.26
AAAAAATCACGACACACACACACACTAAAAAAAAAA [CACACA_site6792]	8.6 ± 0.49
AGAATACATATATGAACACACAGAGTTTTAAAAAAT [CACACA_site2735]	8.87 ± 0.42
TTTAAATAATCTAGGTGTACTTTCCTTTATAAATGT [XGTACX_site7859]	8.35 ± 0.42
TATTTCAATATATACCTTTGCTTTTTTAATATACTT [XGTACX_negctrl_site556]	8.56 ± 0.3
TCAATATAAATTAGTTGTACAGTTTTTTTTAATTAT [XGTACX_site6358]	8.4 ± 0.38

Sequence	gcPBM binding intensity (ln)
AATATAAATAAAAACACACACAATGGTACCTATATA [CACACA_site7688]	8.78 ± 0.51
GTAAAATATATAAAATGTACATATATTATATATATA [XGTACX_site489]	8.825 ± 0.064
TTTCTTTATTAAAATATTTTACATATATAATATACG [TGCATGCA_negctrl_site564]	8.64 ± 0.39
CATTTAAAAGATAAAACACACATACTAATAAAAAAC [CACACA_site5417]	8.96 ± 0.45
ATCATTTTTAAAGGAACACACAAAAAAAATTAAAAT [CACACA_site4878]	8.67 ± 0.68
ACATATATTATTATATGTACATATATTAATTATATA [XGTACX_site3400]	8.32 ± 0.35
ACTCTCTTATATTAAACACACATATATATCTGTATA [CACACA_site5489]	8.79 ± 0.41
CTTCTCTTTTTTATCATGCACTTTTTGTATAATAAT [GTGCAC_site9834]	9.13 ± 0.43
ATTTATATGTGGAGCAGTACGCACTCTCACAATTAA [XGTACX_site7252]	8.56 ± 0.28
TAAAAATTATATATCACACATATATGTCAGTATACA [CACACA_site4624]	8.43 ± 0.37
GATGTTCATCACTACACACACAAAGAAATATATATA [CACACA_site2684]	8.66 ± 0.35
TTGTATTTCCTTAGGAGTACACATAAATAAGTAAAT [XGTACX_site6677]	8.59 ± 0.31
AAAGAAAAAAAATATAAAAAATAAAAAATAAAACAA [CACACA_negctrl_site374]	8.48 ± 0.63
TAATATATGTATATATGTACATATAAATGTTATAGA [XGTACX_site2721]	8.59 ± 0.36
TTGGTATAAAATTATAGTACATAAGGTAAATATAAA [XGTACX_site4698]	8.56 ± 0.33
TATTTAAATTTTAAGTGTACATATTTATTTATATCT [XGTACX_site6545]	8.49 ± 0.28
AACTTAAAAAATAAATGTACATAAATATAAACATAT [XGTACX_site2987]	8.68 ± 0.4
AAAAAAAAAAAAATCACACATAATATAGAATATGTA [CACACA_site4993]	8.12 ± 0.45
ATATATATATATATAACACACGCAAAAAAATTAAAT [CACACA_site8395]	10.2 ± 0.26
AAAATGAATAAAAATACACACATATCTGTTATTCTC [CACACA_site5474]	8.17 ± 0.41
GAATATTAATTCATACGTACTTATATATAAGTATAT [XGTACX_site3707]	8.45 ± 0.31
TCACTATAATAATTTACACACATTTTAAGAAAATGT [CACACA_site3530]	8.33 ± 0.34
TATAAAAATGGGCACACACACACATATATATATTTA [CACACA_site1527]	8.59 ± 0.55

Sequence	gcPBM binding intensity (ln)
CCTTTTTATCTTTTTGTGCACAGACCTTTTTTAAAT	9.23 ± 0.23
ATGTAAGTTGTGCATTCACACACATATATATATATA [CACACA_site9086]	10.2 ± 0.2
ATATAATAATAAAGACGTACAAATGTATATATATAC [XGTACX_site3123]	8.98 ± 0.4
ATTTTTTTTTTTTTTTTTTTTTTATTCTTGTAATCT [CACACA_negctrl_site1039]	7.99 ± 0.59
AAAAAAAAAAAAAACATACACACAATAAAATAGGGG [CACACA_site2398]	8.86 ± 0.35
CATTTTTTATTTCCTTGTACGAATAAAATATATTTA [XGTACX_site6844]	8.65 ± 0.35
AATTTAATATAATGCACACATAAAACAAAAACAAAA [CACACA_site529]	8.97 ± 0.042
TACGTAAATGTGTGTGTGCACGTTATATATTAATAT [GTGCAC_site9976]	9.075 ± 0.049
TATTATCGTTCTCATACACACAAAATATACATACAC [CACACA_site2643]	8.9 ± 0.46
TTATAATAATATAATACATGCATATATATTTAAATA [TGCATGCA_site903]	8.6 ± 0.42
ATGGCCTCATTTGGGACACACAACATAAAATATATA [CACACA_site753]	8.65 ± 0.7
AATACACTAAACAAAAGTACAAAAATATTCTACAAA [XGTACX_site5162]	8.42 ± 0.48
ATAAACATATAAAAAGTGCATATTCATATATCTACT	8.41 ± 0.21
TGTTAATTATAAATTTGTACTTATTTTTACAAAATA [XGTACX_site6598]	8.38 ± 0.3
AAATATATTTTATGTACACACAAAATTAAGGGATAT [CACACA_site4881]	8.79 ± 0.33
ATATGACATAAAACATGTACATGTTCATAAATATAT [XGTACX_site1923]	8.85 ± 0.21
ATAAATATTAAAAGTACACACAGATACACTAATTAT [CACACA_site1808]	8.69 ± 0.4
TGAGTACACAATAATACATGCAATTCCTATGAATAT [TGCATGCA_site851]	8.88 ± 0.26
TACACTTTTTATGAAGTGCATGTATAGCTCTTAAAA [GTGCAC_site9595]	8.46 ± 0.35
ATTTACATAATAAAATGTACATTTATAAATATTATA [XGTACX_site1901]	8.27 ± 0.33
CATTATTCATTTTGGATGCACTGACAGAAAAATGGT	8.79 ± 0.33
ATGCTCAGGAAAACATGTACAAAATTATTTGTTATA [XGTACX_site4306]	8.31 ± 0.34
AGTTTTTATAAAAATAGTACATATTTATTAATCTGT [XGTACX_site5881]	8.21 ± 0.42

Sequence	gcPBM binding intensity (ln)
CCCACAGACGGACACACACACACACCGACACATATA [CACACA_site4356]	8.89 ± 0.3
TGCAGTCTGGAGAAACGTACACAGTATCTGGTAACC [XGTACX_site2543]	8.78 ± 0.29
TTTTGTGCTTAAAAAAGTACAAAATATAAAAAAAAT [XGTACX_site7876]	8.59 ± 0.4
TTCTATTTTAATATCTGTACATAATAAAGATCCATT [XGTACX_site1142]	8.5 ± 0.38
AAAATTGAACCTGACAAGGTATTTTATTATTTATTA [TGCATGCA_negctrl_site181]	7.96 ± 0.45
CATATATAAAAAAACACACACATATATATATATATA [CACACA_site1195]	10.2 ± 0.61
ACATAAATATAAACGTGTACATATATAAATATATAT [XGTACX_site7293]	8.43 ± 0.3
ATATATTTTAATTGTTGTACATATTAAATAAATAGG [XGTACX_site2311]	8.47 ± 0.49
ATTTTTTTTTTTTATAGTGGATCCACATTTGCCATT [CACACA_negctrl_site1284]	8.85 ± 0.55
TATATTTTATATATGGTGCAACTTTTATTTAAATAA	8.64 ± 0.042
TTACAAGTAAAAGGTACACACATTATAAATACAAAT [CACACA_site4752]	9.01 ± 0.52
AAAATTAAACTCACACCACACACAAAAAAAAAAAAA [CACACA_site8131]	8.47 ± 0.45
AAGAAAGACATTACGTGTACCAAACAACCTACCAAC [XGTACX_site4219]	9.03 ± 0.62
TGTTTTATCTTATATGCACACGATAAAAAAAAAAAA [CACACA_site2674]	8.63 ± 0.18
ATGTATATGTCTATATGTACTTATATTTTATTTTTT [XGTACX_site5902]	8.3 ± 0.28
AAAATAAATAAATACACACACACGAATATTTATATA [CACACA_site6892]	8.63 ± 0.54
ATTATTTCAATTTTTTTTGTTTTTAAAAAAAAAAAT [CACACA_negctrl_site1387]	8.31 ± 0.42
AAAAAAAAAAAAAAAAGTACACATCATTTTATGAAA [XGTACX_site1402]	8.59 ± 0.13
ATTATAAAAATATCGTGTACATATTTTTTAAAATAA [XGTACX_site5072]	8.23 ± 0.11
GAAAACAAAATGGTAACACACAAATGTAAATAGTAT [CACACA_site2113]	8.63 ± 0.27
